Reference: the supplement of paper PMC4967469
By IC50 is meant the dose at which the fit gives 50% viability; a fit beyond the top or the lowest dose is shown as a bound at that dose. For AUC the same curve is integrated over the 256-fold range of doses and scaled to a fraction; the more sensitive the line, the further below 1. Where the top dose is marked as inferred, it was calculated from the reported fits.

Legend:
Assay in all cases: Viability of human cancer cell lines after 72 h of drug (GDSC screen)
[1] = compound: CC(C)(C)OC(=O)Nc1ccc(-c2cc(C(=O)NCCCCCCC(=O)NO)no2)cc1 [CAY10603]; settings: top dose 20 µM; top dose inferred
Procedure: (§1)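 Human cancer cell lines in 384-well plates, medium with 10% serum, drug for 72 h over a 256-fold dose range (nine 2-fold or five 4-fold steps up to the top dose). Adherent lines were fixed and stained with the nucleic acid dye Syto60, suspension lines read with resazurin; signal relative to control wells, capped at 0 and 100%. One two-parameter sigmoid per drug and line, fitted in a mixed model over all curves with the slope shared within a line.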

[2] = compound: N#Cc1c(C2CCNCC2)cc(-c2c(O)cccc2OCC2CC2)nc1N [ACHP (KIN001-260)]; settings: top dose 20 µM; top dose inferred
Procedure: as §1

[3] = compound: CCc1cc2c(cc1N1CCC(N3CCOCC3)CC1)C(C)(C)c1[nH]c3cc(C#N)ccc3c1C2=O [CH5424802]; settings: top dose 5.12 µM; top dose inferred
Procedure: as §1

Row | Cell Line | AUC [1] | IC50 [1] | AUC [2] | IC50 [2] | AUC [3] | IC50 [3]
1 | K-562 (chronic myeloid leukaemia, suspension) | 0.406 | 0.698 µM | 0.933 | > 20 µM | – | –
2 | LU-99A (large cell lung carcinoma, adherent) | 0.683 | 4.04 µM | 0.979 | > 20 µM | 0.987 | > 5.12 µM
3 | SU-DHL-4 (B-cell lymphoma, suspension) | 0.296 | 0.401 µM | 0.942 | 18 µM | 0.997 | > 5.12 µM
4 | FU97 (stomach, adherent) | 0.68 | 4.03 µM | 0.967 | > 20 µM | 0.985 | > 5.12 µM
5 | NCI-H2172 (non-small cell lung carcinoma, adherent) | 0.784 | 11.9 µM | 0.941 | > 20 µM | 0.978 | > 5.12 µM
6 | HCC1187 (breast, suspension) | 0.736 | 5.66 µM | 0.984 | > 20 µM | 0.968 | > 5.12 µM
7 | Detroit562 (head and neck, adherent) | 0.855 | 15 µM | 0.988 | > 20 µM | 0.987 | > 5.12 µM
8 | KYSE-70 (oesophagus, adherent) | 0.688 | 4.43 µM | 0.977 | > 20 µM | 0.983 | > 5.12 µM
9 | NCI-H3122 (lung adenocarcinoma, adherent) | 0.472 | 1.05 µM | 0.929 | > 20 µM | – | –
10 | H3255 (lung adenocarcinoma, adherent) | 0.768 | 8.91 µM | 0.982 | > 20 µM | 0.97 | > 5.12 µM
11 | Caov-3 (ovary, adherent) | 0.735 | 5.28 µM | 0.988 | > 20 µM | 0.991 | > 5.12 µM
12 | SW1990 (pancreas, adherent) | 0.975 | > 20 µM | 0.985 | > 20 µM | 0.985 | > 5.12 µM
13 | HA7-RCC (kidney, adherent) | 0.981 | > 20 µM | 0.962 | > 20 µM | 0.985 | > 5.12 µM
14 | KARPAS-231 (B-cell leukaemia, suspension) | – | – | – | – | 0.99 | > 5.12 µM
15 | JHH-7 (liver, adherent) | 0.667 | 3.52 µM | 0.989 | > 20 µM | 0.984 | > 5.12 µM
16 | KG-1 (acute myeloid leukaemia, suspension) | 0.35 | 0.506 µM | 0.876 | 16.2 µM | 0.906 | > 5.12 µM
17 | SCC-25 (head and neck, adherent) | 0.463 | 0.974 µM | 0.936 | > 20 µM | 0.98 | > 5.12 µM
18 | NCI-H2444 (non-small cell lung carcinoma, adherent) | 0.705 | 5.15 µM | 0.988 | > 20 µM | 0.988 | > 5.12 µM
19 | BICR31 (head and neck, adherent) | 0.699 | 4.57 µM | 0.986 | > 20 µM | 0.986 | > 5.12 µM
20 | BV-173 (chronic myeloid leukaemia, suspension) | 0.283 | 0.331 µM | 0.96 | > 20 µM | 0.979 | > 5.12 µM
21 | HeLa (cervix, adherent) | – | – | 0.986 | > 20 µM | – | –

Row | Cell Line | AUC [1] | IC50 [1] | AUC [2] | IC50 [2] | AUC [3] | IC50 [3]
22 | SAS (head and neck, adherent) | 0.52 | 1.43 µM | 0.975 | > 20 µM | 0.973 | > 5.12 µM
23 | HT (B-cell lymphoma, suspension) | 0.296 | 0.351 µM | 0.919 | > 20 µM | 0.987 | > 5.12 µM
24 | SNU-449 (liver, adherent) | 0.83 | 14.2 µM | 0.939 | > 20 µM | 0.985 | > 5.12 µM
25 | U251 (glioma, adherent) | 0.287 | 0.324 µM | 0.959 | > 20 µM | 0.984 | > 5.12 µM
26 | NCI-H520 (lung squamous cell carcinoma, adherent) | 0.413 | 0.714 µM | 0.875 | > 20 µM | 0.977 | > 5.12 µM
27 | HEL (acute myeloid leukaemia, semi-adherent) | 0.208 | 0.21 µM | 0.91 | > 20 µM | 0.977 | > 5.12 µM
28 | 647-V (bladder, adherent) | 0.76 | 7.07 µM | 0.982 | > 20 µM | 0.985 | > 5.12 µM
29 | NCI-H1793 (lung adenocarcinoma, adherent) | 0.84 | > 20 µM | 0.978 | > 20 µM | 0.982 | > 5.12 µM
30 | LN-18 (glioma, adherent) | 0.72 | 4.54 µM | 0.994 | > 20 µM | – | –
31 | THP-1 (acute myeloid leukaemia, suspension) | 0.324 | 0.427 µM | 0.907 | > 20 µM | – | –
32 | MV-4-11 (leukaemia, suspension) | – | – | 0.81 | 8.3 µM | – | –
33 | KARPAS-299 (anaplastic large cell lymphoma, suspension) | 0.368 | 0.579 µM | 0.852 | 11.6 µM | – | –
34 | LN-229 (glioma, adherent) | 0.681 | 4.01 µM | 0.987 | > 20 µM | – | –
35 | Caov-4 (ovary, adherent) | – | – | 0.917 | > 20 µM | 0.961 | > 5.12 µM
36 | NCI-H2171 (small cell lung carcinoma, suspension) | – | – | 0.988 | > 20 µM | 0.99 | > 5.12 µM
37 | NCI-H2228 (lung adenocarcinoma, adherent) | 0.758 | 10.5 µM | 0.938 | > 20 µM | – | –
38 | SK-N-FI (neuroblastoma, adherent) | 0.629 | 2.84 µM | 0.988 | > 20 µM | – | –
39 | COR-L311 (small cell lung carcinoma, suspension) | – | – | 0.984 | > 20 µM | 0.94 | > 5.12 µM
40 | KASUMI-1 (acute myeloid leukaemia, suspension) | – | – | – | – | 0.885 | > 5.12 µM
41 | TE-441-T (rhabdomyosarcoma, adherent) | – | – | 0.977 | > 20 µM | 0.987 | > 5.12 µM
